According to the supplement of paper PMC11741623:
The other results are listed elsewhere or left out. Interaction screen of human proteins with wild-type SARS-CoV-2 proteins by split-DHFR complementation in yeast, 1 µg/mL methotrexate. Value = fitness of the pair (three or more lineages) minus that of the viral protein without a human partner, on a scale set by negative (0) and fused positive (1) controls, mean of up to three cultures; higher = more likely to interact. Active = false discovery rate below 0.05 (one-sided t-test) in at least one culture. Nearly all pairs are not hits, and differences among them are mostly noise (correlation between cultures about 0.3); most hits were seen in one culture only. Human sequences are the Swiss-Prot entries looked up by gene name; the clone may be another isoform. NSP2 values were corrected by the authors for a growth advantage. Listed are human proteins with a hit and a random twelfth of the others.

What was measured:
Assay in all cases: yeast fitness gain over the viral ORF with no human partner (scaled fitness); higher = more likely to interact
[1] = biological target: SARS-CoV-2 E
Description: (§1)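 Split mouse DHFR complementation in pooled diploid yeast: human ORFeome clones carry one fragment and viral ORFs the other; barcoded lineages compete in 1 µg/mL methotrexate and fitness is read by barcode sequencing in up to three cultures.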

[2] = biological target: SARS-CoV-2 M
Description: as §1

[3] = biological target: SARS-CoV-2 N
Description: as §1

[4] = biological target: SARS-CoV-2 NSP1
Description: as §1

[5] = biological target: SARS-CoV-2 NSP10
Description: as §1

[6] = biological target: SARS-CoV-2 NSP12
Description: as §1

[7] = biological target: SARS-CoV-2 NSP13
Description: as §1

[8] = biological target: SARS-CoV-2 NSP14
Description: as §1

[9] = biological target: SARS-CoV-2 NSP16
Description: as §1

[10] = biological target: SARS-CoV-2 NSP2
Description: as §1

[11] = biological target: SARS-CoV-2 NSP4
Description: as §1

[12] = biological target: SARS-CoV-2 NSP5
Description: as §1

[13] = biological target: SARS-CoV-2 NSP6
Description: as §1

[14] = biological target: SARS-CoV-2 NSP7
Description: as §1

[15] = biological target: SARS-CoV-2 NSP9
Description: as §1

[16] = biological target: SARS-CoV-2 ORF10
Description: as §1

[17] = biological target: SARS-CoV-2 ORF3A
Description: as §1

[18] = biological target: SARS-CoV-2 ORF3B
Description: as §1

[19] = biological target: SARS-CoV-2 ORF6
Description: as §1

[20] = biological target: SARS-CoV-2 ORF7A
Description: as §1

[21] = biological target: SARS-CoV-2 ORF7B
Description: as §1

[22] = biological target: SARS-CoV-2 ORF8
Description: as §1

[23] = biological target: SARS-CoV-2 ORF9B
Description: as §1

[24] = biological target: SARS-CoV-2 ORF9Bwu (the 73-codon ORF)
Description: as §1

[25] = biological target: SARS-CoV-2 S
Description: as §1

[26] = biological target: SARS-CoV-2 NSP15
Description: as §1

[27] = biological target: SARS-CoV-2 NSP8
Description: as §1

Row | Binder | yeast fitness gain [1] | yeast fitness gain [2] | yeast fitness gain [3] | yeast fitness gain [4] | yeast fitness gain [5] | yeast fitness gain [6] | yeast fitness gain [7] | yeast fitness gain [8] | yeast fitness gain [9] | yeast fitness gain [10] | yeast fitness gain [11] | yeast fitness gain [12] | yeast fitness gain [13] | yeast fitness gain [14] | yeast fitness gain [15] | yeast fitness gain [16] | yeast fitness gain [17] | yeast fitness gain [18] | yeast fitness gain [19] | yeast fitness gain [20] | yeast fitness gain [21] | yeast fitness gain [22] | yeast fitness gain [23] | yeast fitness gain [24] | yeast fitness gain [25] | yeast fitness gain [26] | yeast fitness gain [27]
1 | UBOX5, O94941 (protein) MVINLCLPQFRPRIHCNKISADGYEVENLISEDLTKRSHGFRTEYFIKPPVYVTVSFPFNVEICRINIDLTAGGGQNVTGLEMYTSASSSRVSWNTPQCRTLGPAEPSVPDKEAFTLVGKVLLKNQSQVVFSHRGFKARPPFGAMEATLPSPAVVAQELWNKGALSLSHVAHLRICITHVTGGGIPCIKRLEVWGQPAKTCSQEVIDSILLVTSENLPQDVALQAPALPMESDCDPGDQPESQQAPSSLQKLAEIIQDVPEEFLDPITLEIMPCPMLLPSGKVIDQSTLEKCNRSEATWGRVPSDPFTGVAFTPHSQPLPHPSLKARIDHFLLQHSIPGCHLLGRAQTALAVIPSSIVLPSQKRKIEQAEHVPDSNFGVNASCFSATSPLVLPTTSEHTAKKMKATNEPSLTHMDCSTGPLSHEQKLSQSLEIALASTLGSMPSFTARLTRGQLQHLGTRGSNTSWRPGTGSEQPGSILGPECASCKRVFSPYFKKEPVYQLPCGHLLCRPCLGEKQRSLPMTCTACQRPVASQDVLRVHF | inactive: -0.0032 | inactive: 0.0553 | inactive: -0.0504 | inactive: 0.028 | inactive: 0.0371 | inactive: 0.00996 | inactive: -0.0403 | inactive: -0.0616 | inactive: 0.131 | inactive: -0.143 | inactive: -0.0988 | inactive: -0.0203 | inactive: 0.127 | inactive: -0.0103 | inactive: -0.0629 | inactive: 0.0175 | inactive: -0.0523 | inactive: -0.00645 | inactive: 0.013 | inactive: 0.0656 | inactive: -0.0493 | inactive: -0.045 | inactive: -0.0308 | inactive: 0.0439 | inactive: -0.0433 | – | –
2 | VSIG8, P0DPA2 (protein) MRVGGAFHLLLVCLSPALLSAVRINGDGQEVLYLAEGDNVRLGCPYVLDPEDYGPNGLDIEWMQVNSDPAHHRENVFLSYQDKRINHGSLPHLQQRVRFAASDPSQYDASINLMNLQVSDTATYECRVKKTTMATRKVIVTVQARPAVPMCWTEGHMTYGNDVVLKCYASGGSQPLSYKWAKISGHHYPYRAGSYTSQHSYHSELSYQESFHSSINQGLNNGDLVLKDISRADDGLYQCTVANNVGYSVCVVEVKVSDSRRIGVIIGIVLGSLLALGCLAVGIWGLVCCCCGGSGAGGARGAFGYGNGGGVGGGACGDLASEIREDAVAPGCKASGRGSRVTHLLGYPTQNVSRSLRRKYAPPPCGGPEDVALAPCTAAAACEAGPSPVYVKVKSAEPADCAEGPVQCKNGLLV | inactive: -0.055 | inactive: 0.0325 | inactive: -0.0313 | inactive: 0.0352 | inactive: -0.0515 | inactive: -0.0328 | inactive: -0.0599 | inactive: -0.333 | inactive: -0.0626 | inactive: -0.129 | inactive: 0.0605 | inactive: 0.0419 | inactive: -0.00128 | inactive: 0.021 | inactive: -0.0381 | inactive: -0.0426 | inactive: -0.000841 | inactive: -0.019 | inactive: 0.00813 | inactive: 0.071 | inactive: -0.0546 | inactive: -0.0433 | inactive: -0.022 | inactive: 0.0191 | inactive: 0.063 | inactive: 0.0513 | inactive: -0.0346
3 | TAS2R7, Q9NYW3 (protein) MADKVQTTLLFLAVGEFSVGILGNAFIGLVNCMDWVKKRKIASIDLILTSLAISRICLLCVILLDCFILVLYPDVYATGKEMRIIDFFWTLTNHLSIWFATCLSIYYFFKIGNFFHPLFLWMKWRIDRVISWILLGCVVLSVFISLPATENLNADFRFCVKAKRKTNLTWSCRVNKTQHASTKLFLNLATLLPFCVCLMSFFLLILSLRRHIRRMQLSATGCRDPSTEAHVRALKAVISFLLLFIAYYLSFLIATSSYFMPETELAVIFGESIALIYPSSHSFILILGNNKLRHASLKVIWKVMSILKGRKFQQHKQI | inactive: 0.363 | inactive: -0.0157 | inactive: 0.0696 | inactive: 0.0119 | inactive: -0.0498 | inactive: -0.0414 | inactive: -0.0258 | inactive: 0.176 | inactive: -0.0818 | inactive: -0.178 | active: 0.795 | inactive: -0.0332 | inactive: -0.0908 | inactive: -0.202 | inactive: -0.071 | inactive: -0.0328 | inactive: 0.143 | inactive: -0.083 | inactive: -0.09 | active: 0.611 | active: 0.782 | inactive: -0.104 | inactive: -0.0698 | inactive: 0.283 | inactive: -0.0268 | inactive: -0.152 | inactive: -0.0695
